Measurements taken from patent publication US20110262945A1, “GLYCOPROTEIN PRODUCTION METHOD AND SCREENING METHOD” (OTSUKA CHEMICAL CO., LTD., priority 2008, published 2011).

What was measured:
[1] = molecular target: α-chymotrypsin (Bos taurus, UniProt P00766); assay: Inhibitory activity of OMSVP3 fractions against chymotrypsin at constant sample concentration (Example 2); format: biochemical; settings: for activity intensity (inhibitory activity against chymotrypsin), rank order of fractions: Example 2, sample 2.5 μM, enzyme 0.33 μg/mL, substrate 172 μM, 37° C., 10 minutes, FIGS. 13 and 21
Procedure: (§1) An enzyme solution of a 0.1 M phosphate buffer (pH=8.0, containing 0.01% α-chymotrypsin and 0.01% bovine serum albumin) and a substrate solution of a 0.1 M phosphate buffer (pH=8.0, containing 517 μM of a 14-residue peptide having a protecting group synthesized in Reference Example 1 (to be described later) (SEQ ID NO:16) and 0.01% bovine serum albumin) were prepared, and 20 μL of each solution was transferred to an Eppendorf tube. Separately, each of the Fractions A to D obtained in Example 1 was lyophilized and dissolved in 0.1 M phosphate buffer (pH=8.0, containing 0.01% bovine serum albumin), and OD280 of each resulting solution was measured to prepare sample solutions of constant protein concentration. Then, 20 μL of each sample solution was added to the solution prepared as above and the inhibitory activity was measured. In this experiment, the final reaction concentration was as follows; a sample concentration of 2.5 μM, an enzyme concentration of 0.33 μg/mL, and a substrate concentration of 172 μM. The resulting reaction solutions were incubated at 37° C. for 10 minutes, after which the reaction was terminated by addition of 5 μL of 4N hydrochloric acid.
as §1, with “Fractions E” for “Fractions A”, “to H” for “to D”

[2] = molecular target: Chymotrypsin (Bos taurus, UniProt P00766); assay: Percent inhibition against chymotrypsin and calculation of IC50 of OMSVP3 fractions (Example 3); format: biochemical; settings: incubation one hour at 37° C., FIGS. 23 to 26
Procedure: The 14-residue peptide having a protecting group synthesized in Reference Example 1 (to be described later) (SEQ ID NO:16) (1.5 mg) was dissolved in 1 mL of a 0.1 M phosphate buffer (pH 8.0, containing 0.1 mg/mL BSA) to prepare a 1 mM solution. The solution thus obtained was diluted to 0.34 mM using an absorption spectrometer (solution 1). Chymotrypsin (1 mg) was dissolved in 1 mL of a 0.1 M phosphate buffer (pH 8.0, containing 0.1 mg/mL BSA). The resulting solution was diluted 10-fold, and further diluted 10-fold. The above operation was repeated so that a solution of 0.2 μg/mL was prepared (solution 2). Fraction B was dissolved in 100 μL of a 0.1 M phosphate buffer (pH 8.0, containing 0.1 mg/mL BSA), and the solution thus obtained was diluted to 65 nM using an absorption spectrometer. The resulting solution was diluted to prepare solutions of 58.5 nM, 52 nM, 45.5 nM, 39 nM, 32.5 nM, 26 nM, 19.5 nM, 13 nM, and 6.5 nM (solution 3). Into the same Eppendorf tube, 80 μL of Solution 1 that was sufficiently cooled on ice and 40 μL each of Solutions 2 and 3 were transferred, followed by incubation for one hour at 37° C. After one hour, the reaction was terminated by addition of 16 μL of 1N hydrochloric acid. Then, 20 μL of the resulting reaction solution was mixed with 80 μL of buffer to make up a total of 100 μL which was then measured by HPLC. A degradation rate per unit time (a reaction rate per unit time) was calculated from the peak area of HPLC of the reaction product. […] Similarly, with regard also to Fractions A, C, and D, graphs were plotted in such a way that the concentrations of the inhibiting agent sandwiched the concentration at which the enzyme activity was inhibited by 50%. The resulting graphs are shown (FIG. 23). The IC50 values of glycosylated OMSVP3 (Fractions A to D) calculated based on these graphs are shown in a graph (FIG. 24).
The 14-residue peptide having a protecting group synthesized in Reference Example 1 (to be described later) (SEQ ID NO:16) (1.5 mg) was dissolved in 1 mL of a 0.1 M phosphate buffer (pH 8.0, containing 0.1 mg/mL BSA) to prepare a 1 mM solution. The solution thus obtained was diluted to 0.34 mM using an absorption spectrometer (solution 1). Chymotrypsin (1 mg) was dissolved in 1 mL of a 0.1 M phosphate buffer (pH 8.0, containing 0.1 mg/mL BSA). The resulting solution was diluted 10-fold, and further diluted 10-fold. The above operation was repeated so that a solution of 0.2 μg/mL was prepared (solution 2). […] The resulting solution was diluted to prepare solutions of 58.5 nM, 52 nM, 45.5 nM, 39 nM, 32.5 nM, 26 nM, 19.5 nM, 13 nM, and 6.5 nM (solution 3). Into the same Eppendorf tube, 80 μL of Solution 1 that was sufficiently cooled on ice and 40 μL each of Solutions 2 and 3 were transferred, followed by incubation for one hour at 37° C. After one hour, the reaction was terminated by addition of 16 μL of 1N hydrochloric acid. Then, 20 μL of the resulting reaction solution was mixed with 80 μL of buffer to make up a total of 100 μL, which was then measured by HPLC. A degradation rate per unit time (a reaction rate per unit time) was calculated from the peak area of HPLC of the reaction product. […] Similarly, with regard also to Fractions E, G, and H, graphs were plotted in such a way that the concentrations of the inhibiting agent sandwiched the concentration at which the enzyme activity was inhibited by 50%. The resulting graphs are shown (FIG. 25). The IC50 values of non-glycosylated OMSVP3 (Fractions E to F) calculated based on these graphs are shown in a graph (FIG. 26).

Substance: Fraction A: Folded 56-residue glycosylated peptide (SEQ ID NO:10), glycosylated OMSVP3, one higher order structure separated by HPLC (LAAVSVDCSEYPKPACTMEYRPLCGSDNKTYGNKCNFCNAVVESNGTLTLSHFGKC; glycosylated; silver pheasant; glycosylated amino acid sequence (glycosylated OMSVP3))
- activity intensity (inhibitory activity against chymotrypsin), rank order of fractions [1]: Fraction A>Fraction B>Fraction D>Fraction C
- activity intensity (percent inhibition / IC50 against chymotrypsin), rank order of fractions [2]: Fraction A>Fraction B>Fraction C>Fraction D

Substance: Fraction H: Folded 56-residue peptide (SEQ ID NO:15), non-glycosylated OMSVP3, Comparative Example, separated by HPLC (LAAVSVDCSEYPKPACTMEYRPLCGSDNKTYGNKCNFCNAVVESNGTLTLSHFGKC; silver pheasant; amino acid sequence (non-glycosylated OMSVP3))
- activity intensity (inhibitory activity against chymotrypsin), rank order of fractions [1]: Fraction F>Fraction E>Fraction H>Fraction G
- activity intensity (percent inhibition / IC50 against chymotrypsin), rank order of fractions [2]: Fraction E>Fraction F>Fraction G>Fraction H

Substance: Fraction B: Folded 56-residue glycosylated peptide (SEQ ID NO:10), glycosylated OMSVP3, disulfide bonds as naturally-occurring OMSVP3 (LAAVSVDCSEYPKPACTMEYRPLCGSDNKTYGNKCNFCNAVVESNGTLTLSHFGKC; glycosylated; silver pheasant; glycosylated amino acid sequence (glycosylated OMSVP3))
- activity intensity (inhibitory activity against chymotrypsin), rank order of fractions [1]: Fraction A>Fraction B>Fraction D>Fraction C
- activity (in words) of the maximum peak fraction ([1]; chymotrypsin inhibition, fractions obtained as the maximum peak): high activity
- activity intensity (percent inhibition / IC50 against chymotrypsin), rank order of fractions [2]: Fraction A>Fraction B>Fraction C>Fraction D

Substance: Fraction D: Folded 56-residue glycosylated peptide (SEQ ID NO:10), glycosylated OMSVP3, one higher order structure separated by HPLC (LAAVSVDCSEYPKPACTMEYRPLCGSDNKTYGNKCNFCNAVVESNGTLTLSHFGKC; glycosylated; silver pheasant; glycosylated amino acid sequence (glycosylated OMSVP3))
- activity intensity (inhibitory activity against chymotrypsin), rank order of fractions [1]: Fraction A>Fraction B>Fraction D>Fraction C
- activity intensity (percent inhibition / IC50 against chymotrypsin), rank order of fractions [2]: Fraction A>Fraction B>Fraction C>Fraction D

Substance: Fraction E: Folded 56-residue peptide (SEQ ID NO:15), non-glycosylated OMSVP3, Comparative Example, separated by HPLC (LAAVSVDCSEYPKPACTMEYRPLCGSDNKTYGNKCNFCNAVVESNGTLTLSHFGKC; silver pheasant; amino acid sequence (non-glycosylated OMSVP3))
- activity intensity (inhibitory activity against chymotrypsin), rank order of fractions [1]: Fraction F>Fraction E>Fraction H>Fraction G
- activity intensity (percent inhibition / IC50 against chymotrypsin), rank order of fractions [2]: Fraction E>Fraction F>Fraction G>Fraction H

Substance: Fraction C: Folded 56-residue glycosylated peptide (SEQ ID NO:10), glycosylated OMSVP3, one higher order structure separated by HPLC (LAAVSVDCSEYPKPACTMEYRPLCGSDNKTYGNKCNFCNAVVESNGTLTLSHFGKC; glycosylated; silver pheasant; glycosylated amino acid sequence (glycosylated OMSVP3))
- activity intensity (inhibitory activity against chymotrypsin), rank order of fractions [1]: Fraction A>Fraction B>Fraction D>Fraction C
- activity intensity (percent inhibition / IC50 against chymotrypsin), rank order of fractions [2]: Fraction A>Fraction B>Fraction C>Fraction D

Substance: Fraction G: Folded 56-residue peptide (SEQ ID NO:15), non-glycosylated OMSVP3, Comparative Example, separated by HPLC (LAAVSVDCSEYPKPACTMEYRPLCGSDNKTYGNKCNFCNAVVESNGTLTLSHFGKC; silver pheasant; amino acid sequence (non-glycosylated OMSVP3))
- activity intensity (inhibitory activity against chymotrypsin), rank order of fractions [1]: Fraction F>Fraction E>Fraction H>Fraction G
- activity intensity (percent inhibition / IC50 against chymotrypsin), rank order of fractions [2]: Fraction E>Fraction F>Fraction G>Fraction H
